# Reference: PMC7819943, “Rice protein-binding microarrays: a tool to detect cis-acting elements near promoter regions in rice”
# Some of the results follow.
# Target: T1, OsWOX13 (Oryza sativa, UniProt Q5QMM3 1-267)
# T1 sequence: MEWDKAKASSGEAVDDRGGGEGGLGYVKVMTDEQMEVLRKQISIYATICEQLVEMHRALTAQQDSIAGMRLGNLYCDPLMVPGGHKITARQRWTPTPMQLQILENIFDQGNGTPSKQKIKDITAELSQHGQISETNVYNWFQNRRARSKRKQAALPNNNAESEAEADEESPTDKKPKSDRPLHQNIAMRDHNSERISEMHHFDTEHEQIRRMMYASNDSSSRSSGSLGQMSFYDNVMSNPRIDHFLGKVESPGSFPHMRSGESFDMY
# Test: protein-binding microarray (RPBM); PBS, 2% BSA, 51.3 ng/ul salmon testes DNA, 50 uM zinc acetate, 200 nM TF, 25 C, 1 h; high values mean tight binding
# Conditions: protein: recombinant; tags: N-terminal polyhistidine and DsRed monomer fusion (pET32a); label: CyDye5-dUTP incorporated in the synthesized complementary strand; 3' TTTTT single-stranded linker to array surface; dsDNA, one strand shown
# How it was run: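 The binding signal is fluorescence intensity per feature, in arbitrary units, read on an Axon 4000B scanner. Polyhistidine- and DsRed-tagged transcription factors (N-terminal fusions) from E. coli BL21-CodonPlus were purified on Ni–NTA and applied at 200 nM for 1 h at 25 °C to a double-stranded, BSA-blocked custom Agilent array in buffer with 50 µM zinc acetate.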
row,Sequence,binding signal
1,ATAATTGCAATCAAACATCCAATAGAAAACCAAACCACACCGGAGTCACCTAGTGCAG,32600 fluorescence intensity (a.u.)
2,CAATAGCTAATTTATACAATAGTTACCTATAAACATATACCGGAGTCACCTAGTGCAG,5050 fluorescence intensity (a.u.)
3,GCGAACGCGATGATTGGAGAGAGCGAAGCTGACCTTCCCTCGGAGTCACCTAGTGCAG,13000 fluorescence intensity (a.u.)
4,TATTGAGCCTAATTAATCCATGATTAGCCTATGTGATGCTCGGAGTCACCTAGTGCAG,24000 fluorescence intensity (a.u.)
5,TAGCTAAATTTATTTGCTTGGAAAACTCTAGTTACACTGCCGGAGTCACCTAGTGCAG,6120 fluorescence intensity (a.u.)
6,GTGGAGGTAATCAATTAATCAATTCAGGTAATGCGGGAGACGGAGTCACCTAGTGCAG,29200 fluorescence intensity (a.u.)
7,TTAAATTGACTATAGTTGATTTGTAGCCTACAATTGGCAGCGGAGTCACCTAGTGCAG,64600 fluorescence intensity (a.u.)
8,GCACTGATTGAATTGAACTGTATAGAACAAAATGAAATTTCGGAGTCACCTAGTGCAG,19600 fluorescence intensity (a.u.)
9,GGGATGACAGCAACCTTACTGATGATGTAGACCTTCGGTTCGGAGTCACCTAGTGCAG,7120 fluorescence intensity (a.u.)
10,GAACTTCCAATCAAATCCGCTCCAGCAACAACCGAACACGCGGAGTCACCTAGTGCAG,6000 fluorescence intensity (a.u.)
11,AACCTCGCAGGGATTGATTAGGATCGAAACTTGTGTTAAACGGAGTCACCTAGTGCAG,6640 fluorescence intensity (a.u.)
12,ATGATTTCATAGTTAATAACCAAATTGACCTACTCTCTGTCGGAGTCACCTAGTGCAG,15600 fluorescence intensity (a.u.)
13,GGTAGTTCTATTTGTGATAGATTAACAACAATGGATGAATCGGAGTCACCTAGTGCAG,5290 fluorescence intensity (a.u.)
14,ACTAATGTTGATTGATTAAACATGCACACTATTAATGTTGCGGAGTCACCTAGTGCAG,44300 fluorescence intensity (a.u.)
15,TATAATAGATAGCCAAATTATATAATAGTTACGTATAAATCGGAGTCACCTAGTGCAG,13600 fluorescence intensity (a.u.)
16,GTTTGATGAGTATTAGGCGTGACACATGACAAATCACAGACGGAGTCACCTAGTGCAG,4350 fluorescence intensity (a.u.)
17,CCACTTTTAGATTTGACAATTAACTATTTGTCACTTTTAGCGGAGTCACCTAGTGCAG,23600 fluorescence intensity (a.u.)
18,ATCAGTAATTTATCAATGTACTAAGACATGTTTTACAACTCGGAGTCACCTAGTGCAG,7880 fluorescence intensity (a.u.)
19,CACATATACATTTTCCAGTTATTGGCGAGAATGAAACCAGCGGAGTCACCTAGTGCAG,3300 fluorescence intensity (a.u.)
20,TATAAATTGAAAATGTGTTAAAACCGATGTACTGTACTACCGGAGTCACCTAGTGCAG,26800 fluorescence intensity (a.u.)
21,CGCTGTTAATTCGTTATTTTGAGTATGTGTTTAGAGGTATCGGAGTCACCTAGTGCAG,3900 fluorescence intensity (a.u.)

row,Sequence,binding signal
1,CTTTAATTTGGTCCAATATTTCATAGAGACAATAATATGTCGGAGTCACCTAGTGCAG,11200 fluorescence intensity (a.u.)
2,CTAACACACAAACTATTCAATTTGCCAATAAATTGGTAGGCGGAGTCACCTAGTGCAG,8660 fluorescence intensity (a.u.)
3,AATAACTGATAAAAGATATATGATTTTGGAGAAATGTGTGCGGAGTCACCTAGTGCAG,26100 fluorescence intensity (a.u.)
4,TTAACATTGAATAATTGTTGATCTACAAGAAATTCCTGCCCGGAGTCACCTAGTGCAG,12000 fluorescence intensity (a.u.)
5,ATTGATGACTGAATTTCTCGGTCTCGGTCTTTTCGATCTCCGGAGTCACCTAGTGCAG,21300 fluorescence intensity (a.u.)
6,CATCCAAATTGGCAAAGGCCGCCTCTTTCTTTAATTAACCCGGAGTCACCTAGTGCAG,14100 fluorescence intensity (a.u.)
7,TGCTGGCTGAATACTACTACCATGTCATCTATAGCCATCACGGAGTCACCTAGTGCAG,25300 fluorescence intensity (a.u.)
8,TTTGCTAAATCATTGCGCAGATTAAAAGATGTAGAAAGCGCGGAGTCACCTAGTGCAG,4380 fluorescence intensity (a.u.)
9,CCAAAATTGACACGGAGAAAGAGCTGCAGCGATACCCCTCCGGAGTCACCTAGTGCAG,28000 fluorescence intensity (a.u.)
10,GTATAAAAGCCAATTATTGGAGAGTAAGGCTCCATTTTCGCGGAGTCACCTAGTGCAG,6310 fluorescence intensity (a.u.)
11,ATTACAATGATTTCCCTAAACTTCTTTTCACAGTGTTGCTCGGAGTCACCTAGTGCAG,10600 fluorescence intensity (a.u.)
12,TGGAAAATTTTAAGTTATGCTAAATATATGTGTCATGCATCGGAGTCACCTAGTGCAG,3360 fluorescence intensity (a.u.)
13,AACATATTGATTCGGTTAAGTACATGCCCATTAGGGTTGTCGGAGTCACCTAGTGCAG,5870 fluorescence intensity (a.u.)
14,GATTAAATTAATTAAGTATTAATACTAGCTATTACAAACTCGGAGTCACCTAGTGCAG,27100 fluorescence intensity (a.u.)
15,TGCTAATGACTGATTAATTAGGCTTAATAAATTTGTCTCGCGGAGTCACCTAGTGCAG,64800 fluorescence intensity (a.u.)
16,CGATGATTGTAATCTCATTGAACAGATGATCCTTCAGGATCGGAGTCACCTAGTGCAG,52400 fluorescence intensity (a.u.)
17,ATTTAATTGTATCATATATACTTAGTATTTACCAACATTTCGGAGTCACCTAGTGCAG,19500 fluorescence intensity (a.u.)
18,ATAGATGATTTGGAGTTAATAGTAAGCTATACTATTAAACCGGAGTCACCTAGTGCAG,25100 fluorescence intensity (a.u.)
19,TAAAACTTAATTAATGACGTGTTAAACGCTGCTTCGTTTTCGGAGTCACCTAGTGCAG,33300 fluorescence intensity (a.u.)
20,TTAATAGAAAATAAATTATTTAGAGTCCAACTCAATAAAACGGAGTCACCTAGTGCAG,10200 fluorescence intensity (a.u.)
21,AAAGTCAATAAATTAATTTAAAGACGTTTTCTAAAGTAATCGGAGTCACCTAGTGCAG,8930 fluorescence intensity (a.u.)
